# This is one part of the list. Values were computed here from the reads of four pooled replicates and scatter widely.
# Biological target: T1, Pho4 (S. cerevisiae) (UniProt P07270)
# T1 sequence: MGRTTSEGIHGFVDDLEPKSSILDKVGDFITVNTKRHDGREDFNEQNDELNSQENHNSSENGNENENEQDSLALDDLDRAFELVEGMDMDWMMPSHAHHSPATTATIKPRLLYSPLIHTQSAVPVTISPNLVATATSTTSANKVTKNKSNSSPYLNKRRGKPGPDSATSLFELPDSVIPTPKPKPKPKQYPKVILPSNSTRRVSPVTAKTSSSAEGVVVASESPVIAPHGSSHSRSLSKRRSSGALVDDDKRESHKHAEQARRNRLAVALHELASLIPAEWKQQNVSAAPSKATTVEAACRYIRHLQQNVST
# Test: relative binding free energy (BET-seq); higher = weaker binding
# Conditions: reference: library average
row,Sequence,relative binding free energy [kcal/mol]
1,TTTACCACGTGGGCGG,-0.23
2,GTTTTCACGTGAATCT,0.5
3,AGGGACACGTGGGCGG,-0.1
4,GGGCCCACGTGGGGTT,-0.16
5,GGGCCCACGTGAGTGG,0.13
6,GAGGTCACGTGGCATT,0.09
7,GGAGTCACGTGGCTTT,0.03
8,ATAGTCACGTGGTTGA,0.08
9,ATTCGCACGTGATTAT,0.12
10,TGAATCACGTGTAGCG,0.32
11,GCCTTCACGTGGTGTG,0.18
12,GGTTCCACGTGTGAGG,0.2
13,GGCGCCACGTGGTGTT,-0.19
14,TCGGTCACGTGTGTCA,0.09
15,GGGCACACGTGTCGGG,0.15
16,TTAGGCACGTGGGATG,-0.14
17,GCGTGCACGTGTATGT,-0.06
18,CTGAGCACGTGTAAGG,-0.03
19,AGCTGCACGTGTTTGA,0.08

row,Sequence,relative binding free energy [kcal/mol]
1,GAGGTCACGTGGGGTC,0.09
2,TTGGGCACGTGTCAGT,-0.06
3,GTATGCACGTGTGATA,0.01
4,TTTTTCACGTGATATT,0.38
5,TGGGTCACGTGTGGCG,0.2
6,TAGTCCACGTGGGTAT,0.04
7,ATTCTCACGTGTTGTA,0.34
8,TGTTGCACGTGCTAAG,-0.01
9,TCGTACACGTGGGTTG,-0.1
10,TGTTTCACGTGTGTAA,0.32
11,GGATACACGTGGGGAT,0
12,TGGTCCACGTGTCGTG,0.08
13,TACTGCACGTGGATGT,-0.04
14,TCTTTCACGTGCTGTG,0.14
15,AACAGCACGTGGGGTT,-0.21
16,TGGGACACGTGTGGTA,0.07
17,CGATGCACGTGAGGTG,0.09
18,CTGAGCACGTGATGTA,0.16
19,TGCGTCACGTGGGAAA,0.03

row,Sequence,relative binding free energy [kcal/mol]
1,CGGTTCACGTGGGCGT,0.1
2,CTTCGCACGTGAGGGT,0.19
3,TGGGTCACGTGGGTTC,0.06
4,AATTGCACGTGCTATG,-0.12
5,GTAGTCACGTGAGAAG,0.24
6,GGGGTCACGTGGCTTG,0.08
7,GTTGTCACGTGCTTCG,0.12
8,GTGAACACGTGGGAGA,-0.07
9,TGAAGCACGTGGTGAA,-0.13
10,TGATGCACGTGTACTT,0
11,AGGTGCACGTGCGGCG,-0.15
12,TGGTTCACGTGATGGG,0.37
13,AAATTCACGTGGTTTA,0.14
14,ATACACACGTGTGTGT,-0.09
15,TGTCTCACGTGTCTTT,0.22
16,ATGTTCACGTGGTCTT,0.36
17,CGGGGCACGTGATATG,-0.25
18,GCGGTCACGTGTATTT,0.24
19,GTGGACACGTGTCTTT,0.23
